In all, about 340,000 compounds went through this assay and about 6,900 (2%) were called active. No stated cut-off is given here; in the data, active means inhibition above about 30%; inactive means below that, where a call was filed. The entries are a selection whose mix differs from that of the whole data set. Where no call is shown, the source filed none.
The compounds below were run against D(2) dopamine receptor (Homo sapiens) (UniProt P14416) (assay: HTS Assay for Allosteric Antagonists of the Human D2 Dopamine Receptor: Primary Screen for Antagonists). Details: HEK293 TREx D2 cells, calcium flux, dopamine EC80; at 10 µM; stronger effect = higher value.
Method in brief: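 Calcium flux kinetic readout in an inducible HEK293 TREx D2 line plated overnight at 30 C. After 180 s compound exposure, an EC80 dopamine challenge follows with another 180 s kinetic read to detect antagonism.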
Further: 0% is about no effect.

UniProt P14416, sequence (P14416 whole entry, looked up): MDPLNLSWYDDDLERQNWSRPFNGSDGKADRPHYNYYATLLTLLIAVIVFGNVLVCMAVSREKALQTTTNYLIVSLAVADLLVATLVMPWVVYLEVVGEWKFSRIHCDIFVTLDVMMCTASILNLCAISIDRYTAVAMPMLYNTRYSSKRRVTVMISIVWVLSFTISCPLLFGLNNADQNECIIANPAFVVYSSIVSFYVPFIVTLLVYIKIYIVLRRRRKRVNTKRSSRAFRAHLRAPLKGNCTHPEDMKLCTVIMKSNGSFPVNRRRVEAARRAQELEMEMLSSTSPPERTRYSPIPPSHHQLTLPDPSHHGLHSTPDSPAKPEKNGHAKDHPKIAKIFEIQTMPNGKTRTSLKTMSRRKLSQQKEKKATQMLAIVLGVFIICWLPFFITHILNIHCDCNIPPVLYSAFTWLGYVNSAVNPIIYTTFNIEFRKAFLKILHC

| SMILES | inhibition |
| --- | --- |
| Cc1cccc(NC(=O)c2oc3ccccc3c2NC(=O)Cc2coc3c(C)c(C)ccc23)c1 | 18.2% |
| O=C(CCC1N=C2c3ccccc3N=C(SCc3ccc(F)cc3)N2C1=O)NCc1cccs1 (centres undefined) | -8.02% |
| CC1=C(c2ccc(C)c(C)c2)S(=O)(=O)N(Cc2ccc(C(=O)NCc3cccc(C)c3)cc2)C1=O | 1.25% |
| CCOC(=O)C1=C(CS(=O)(=O)c2cccc(C(F)(F)F)c2)NC(=O)NC1c1cccc(OC)c1 (centres undefined) | 5.44% |
| CCC(C(=O)Nc1cc(Cl)ccc1OC)n1nc(-c2ccccc2)ccc1=O (centres undefined) | 3.67% |
| CCc1ccc(OCc2n[nH]c(=S)n2C(C)CCCC(C)C)cc1 (centres undefined) | active: 47.5% |
| Cc1ccc(Nc2c(-c3c[nH]c4ccccc34)nc3cc(C)ccn23)cc1 | -3.02% |
| CCOc1ccccc1NC(=O)CSc1nc2c(oc3ccccc32)c(=O)n1-c1ccc(C)c(C)c1 | 3.86% |
| COc1cc(OC)c(OC)cc1/C=C/c1nc2cc3ccccc3cc2c(=O)n1-c1ccc(Cl)cc1 | 8.07% |
| CCOC(=O)CC(NS(=O)(=O)c1ccc2[nH]c3c(c2c1)CCCC3)c1ccccc1Cl (centres undefined) | 17.6% |
| CC(C)OCCCNC(=O)c1ccc2c(c1)N(Cc1c(F)cccc1Cl)C(=O)c1ccccc1S2 | -8.13% |
| COc1ccc(-c2nn3c(=O)cc(CN4CCN(C(=O)c5ccc(C(C)(C)C)cc5)CC4)nc3s2)cc1 | -9.87% |
| Cc1ccc(Oc2c(C(F)(F)F)oc3c(CN4CCCCC4C)c(O)ccc3c2=O)cc1 (centres undefined) | -6.56% |
| CC(=O)Nc1ccc(OC(=O)c2ccc(Br)c([N+](=O)[O-])c2)cc1 | active: 30.1% |
| COc1ccc(C(=O)NCC(c2cccnc2)N2CCc3ccccc32)cc1 (centres undefined) | 10.3% |
| CCOC(=O)c1c(N)n(-c2ccc(C)c(Cl)c2)c2nc3ccccc3nc12 | -5.3% |
| CCOC(=O)c1cc(S(=O)(=O)N2CCN(c3ccccc3)CC2)[nH]n1 | -24.1% |
| O=C(Nc1ccccc1)c1nnsc1S(=O)(=O)c1ccc(Cl)cc1 | active: 35.7% |
| CCc1nnc2c3ccccc3nc(Nc3ccc(C(C)=O)cc3)n12 | 1.04% |
| Cc1ccc(OC(C)C(=O)Nc2nonc2-c2ccc(Br)cc2)cc1C (centres undefined) | 11.8% |
| O=C(Nc1c(Cl)cccc1Cl)c1cc(-c2ccc3c(c2)OCO3)on1 | 9.17% |
| CCOC(=O)Cn1c(=O)oc2cc(S(=O)(=O)N3CCN(c4cccc(C)c4C)CC3)ccc21 | 19.2% |
| Cc1ccc2nc(N(Cc3cccnc3)C(=O)COc3ccccc3)sc2c1 | 0.315% |
| CCCCN(C)CCCNC(=O)C1CCN(c2nc3ccc(CC)cc3s2)CC1 | -13.9% |

| SMILES | inhibition |
| --- | --- |
| CC(C)c1ccc(NC(=O)C2CCCN(S(=O)(=O)c3cccc4cccnc34)C2)cc1 (centres undefined) | -0.292% |
| O=C(COc1ccccc1)N/N=C/c1sc(=O)n(Cc2cccc(C(=O)O)c2)c1Cl | active: 44.4% |
| Cc1cccc(C(=O)NCCC(=O)N2CCc3ccccc3C2)c1 | active: 32.1% |
| COC(=O)c1c(-c2ccc(Cl)cc2)noc1N1CCN(c2ccc(C)cc2C)CC1 | -4.13% |
| CCOC(=O)Cc1ccc(NC(=O)N2CCOc3ccc(C)cc32)cc1 | -4.33% |
| COc1ccc(OC)c(NC(=O)c2noc3c2CCCC3)c1 | -1.73% |
| CC(=O)c1ccc(NC(=O)CCSc2nc(-c3ccco3)cc(C(F)(F)F)n2)cc1 | -2.48% |
| Cc1c(S(=O)(=O)c2cccc(Cl)c2)nnn1-c1cccc(C(F)(F)F)c1 | -10.6% |
| Cc1ccc(CNC(=O)C(CC(C)C)NS(=O)(=O)c2ccc3c(c2)oc(=O)n3C)cc1 (centres undefined) | -9.91% |
| O=C(O)c1cc(-n2c(/C=C\c3ccc(F)cc3)nc3ccccc3c2=O)ccc1Cl | 21.8% |
| O=C(NCc1ccc(Cl)cc1)c1cnc(N2CCCCC2)c2ccccc12 | 18.4% |
| Cc1ccc(Cc2nc3ccccc3nc2SCC(=O)Nc2ccc3c(c2)OCO3)cc1 | 4.33% |
| Cc1nc(N2CCOCC2)c2c(C(=O)Nc3cccc(C(F)(F)F)c3)c(C)oc2n1 | 3.92% |
| Cc1ccc(S(=O)(=O)NCCS(=O)(=O)N2CCN(c3ccccc3)CC2)cc1 | 4.31% |
| COc1ccc(CNC(=O)C2CCN(Cc3nc(-c4ccc(Cl)cc4)oc3C)CC2)cc1 | -2.5% |
| O=C(NC1CC(=O)N(c2cccc(F)c2)C1)c1ccc(Br)o1 (centres undefined) | 15.2% |
| CSc1ccc(CCNC(=O)CCc2c(C)nc3c(c(C)nn3-c3ccccc3)c2C)cc1 | 11% |
| O=C(Nc1cccc(F)c1)c1ccc2snnc2c1 | 3.35% |
| Cc1ccc(C)c(Nc2nnc(-n3nc(C)cc3C)c3ccccc23)c1 | -8.79% |
| CCN(c1ccccc1)S(=O)(=O)c1nnc(NC(=O)c2cccs2)s1 | -20.6% |
| Cc1ccc(-n2nc(C(=O)N3CCC(C)CC3)c(=O)n(C)c2=O)cc1 | 12% |
| COc1cc(C(=O)Nc2ccc3nc(SCc4ccc(C)cc4)sc3c2)cc(OC)c1OC | -11.8% |
| CCCC(=O)N1CCN(c2nc3c(OC)ccc(C)c3s2)CC1 | 15.9% |
| CCOc1ccc(-n2c(SCC(=O)N3CCOCC3)nc3c([nH]c4ccccc43)c2=O)cc1 | 21% |

| SMILES | inhibition |
| --- | --- |
| CC(C)(C)OC(=O)N1CCC(c2c(C(=O)N3CCN(C(=O)c4ccco4)CC3)cnn2-c2cccc(F)c2)CC1 | 5.57% |
| COc1cccc(O)c1CN1CCCC(C(=O)c2cccc(C(F)(F)F)c2)C1 (centres undefined) | active: 48.6% |
| COc1cc2[nH]c(=S)nc(NCc3ccc(C)cc3)c2cc1OC | active: 40.6% |
| CCC(=O)NCc1cc(-c2nn(C)c(=O)c3ccccc23)ccc1OC | 13.6% |
| Cc1ccc(C)c(NC(=O)c2ccc3nc(CCc4ccccc4)oc3c2)c1 | -3.5% |
| O=C(CSc1n[nH]c(-c2ccccc2Cl)n1)N1CCN(c2ccccc2)CC1 | 3.24% |
| CCOC(=O)CNS(=O)(=O)c1cc(-c2nnc(Nc3cccc(O)c3)c3ccccc23)ccc1C | -11% |
| CCCc1ccc(C2Sc3ccccc3NC3=C2C(=O)c2ccccc23)cc1 (centres undefined) | 22.7% |
| Cc1cc(NC(=O)c2cccs2)cc(-c2nc3cc(Cl)ccc3o2)c1O | -9.83% |
| O=C(c1cccc(Br)c1)N1CCN(c2ccc(N3CCOCC3)nn2)CC1 | active: 32.9% |
| Cc1ccc(NC(=O)c2ccc(=O)n(CC(=O)Nc3cccc(C)c3)n2)cc1 | 22.2% |
| O=C(c1ccco1)[C@@H]1[C@@H]2C(=O)N(c3ccc(F)cc3)C(=O)[C@@H]2[C@H]2C=Cc3ccccc3N21 | active: 42.6% |
| Cc1cccc(C(c2sc3nc(-c4ccco4)nn3c2O)N2CCN(c3ccccc3)CC2)c1 (centres undefined) | -21.9% |
| CCOc1ccccc1CNS(=O)(=O)c1ccc(-c2coc(C)n2)cc1 | -6.83% |
| COC(=O)c1ccccc1NC(=O)c1cc2nc(-c3ccc(OC)cc3)cc(C(F)(F)F)n2n1 | 2.15% |
| Cc1ccc(NC(=O)c2ccc(NC(=O)N3CCSc4nc(C)cc(C)c43)cc2)c(Cl)c1 | 7.58% |
| CC1CCCCN1C(=O)Cn1c(SCC(=O)N(C)c2ccccc2)nc2ccccc21 (centres undefined) | -8.69% |
| CCn1cc(CNC(=O)c2cc(-c3ccc(C)c(C)c3)nc3ccccc23)c(C)n1 | 5.1% |
| COc1ccc(-c2noc(CSc3nnc(-c4ccncc4)n3-c3ccc(C)cc3)n2)cc1OC | 2.87% |
| O=C(Cn1c(=O)n(Cc2ccc3c(c2)OCO3)c(=O)c2oc3ccccc3c21)Nc1ccc(F)cc1 | -3.4% |
| Cc1cccc(NC(=O)CCc2c(C)nc3nc(CNC(=O)c4cccc(F)c4)nn3c2C)c1 | -2.34% |
| Cn1c(=O)c2c(ncn2CC(=O)Nc2cccc(C(F)(F)F)c2)n(C)c1=O | -4.34% |
| COc1ccc(Cn2c(SCc3ccc(C(=O)NC4CCCC4)cc3)nc3cccnc32)cc1 | 13.7% |
| CC(C)(C)c1ccc(-c2nc3cc(NC(=O)c4cccc(Br)c4)ccc3o2)cc1 | -2.01% |

| SMILES | inhibition |
| --- | --- |
| CCc1ccc(S(=O)(=O)NCCc2csc3nc(-c4ccccc4)nn23)s1 | 19.6% |
| COc1ccc(-n2ccn(CC(=O)NCCc3ccccc3)c(=O)c2=O)cc1OC | 19.4% |
| COc1cccc(CNC(=O)Cn2ncc3c4ccccc4n(Cc4ccccc4)c3c2=O)c1 | 0.171% |
| COc1ccccc1CN(Cc1ccco1)c1cnc(S(C)(=O)=O)nc1C(=O)Nc1cc(C)ccc1C | 3.51% |
| O=C(NCCc1csc2nc(-c3ccc(F)cc3)nn12)c1cccc(C(F)(F)F)c1 | 5.25% |
| COc1cccc(C(=O)NCc2nc(-c3ccccc3)no2)c1OC | 8.41% |
| O=C(/C=C/c1ccc(OC(F)F)cc1)OCC(=O)N1CCC(c2ccccc2)=N1 | active: 38.6% |
| CCOc1ccccc1NC(=O)c1c(NC(=O)c2ccccc2)sc2c1CCCC2 | 1.42% |
| CCOc1ccccc1CNC(=O)c1cnc2sc(N3CCCCCC3)nn2c1=O | -4.88% |
| O=C(Cn1cc(SCc2cccc(Cl)c2)c2ccccc21)N1CCCCCC1 | 6.88% |
| Cc1ccc(S(=O)(=O)N(C)C)cc1NC(=O)COC(=O)C1CCN(S(=O)(=O)c2cccs2)CC1 | active: 35.4% |
| COc1cc(Cl)c(C)cc1NC(=O)c1ccc2c(Cl)c3c(nc2c1)CCC3 | 3.18% |
| CCOc1cccc(CC(=O)N2CCc3c([nH]c4ccccc34)C2c2ccc(Cl)cc2)c1OCC (centres undefined) | 13.4% |
| CC1CCN(C(=O)CSc2nc(-c3ccccc3)no2)CC1 | 9.83% |
| COc1cc(C(=O)N2CCC(c3nc4ccccc4o3)CC2)cc(OC)c1OC | 16.8% |
| Cc1c(NS(=O)(=O)c2ccccc2)cc(C(C)C)c(O)c1S(=O)(=O)c1ccc(Cl)cc1 | 4.3% |
| COc1ccc(C(c2c(O)cc(C)n(Cc3ccco3)c2=O)N2CCCCC2)cc1OC (centres undefined) | -5.58% |
| C(=C\c1ccccc1)/CN1CCN(C(c2ccccc2)c2ccccc2)CC1 | active: 52.7% |
| COc1ccc(CCNc2ncnc3c2cnn3-c2ccc(C)cc2)cc1 | 23.6% |
| CN1C(=O)c2ccccc2Sc2ccc(NC(=O)COc3ccc(F)cc3)cc21 | 10.1% |
| OC(COc1ccc(Cl)c2ccccc12)CN1CCN(c2ccccn2)CC1 (centres undefined) | active: 35.5% |
| Cc1ccc(N2CC(C(=O)Nc3cccnc3)CC2=O)cc1C (centres undefined) | active: 31.1% |
